In this data set the target is Escherichia coli (laboratory strain). Kind of data set: barcode share on antibiotic plates over drug-free plates; higher = less susceptible. Here is the method: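 A pool of E. coli strains, each edited to carry one amino-acid change in an essential protein, was grown for 48 h on minimal glucose agar with or without antibiotic; strain barcodes were sequenced; mean of two replicates.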

Where [1] appears, read: antibiotic: carbenicillin, 2× MIC (3.1 µg/mL).
Where [2] appears, read: antibiotic: gentamicin, 2× MIC (MIC 0.45 µg/mL).

Where a chain is given by its changes, count along the chain named. Names may count otherwise. ± gives the standard deviation of the averaged measurements. Laboratory Escherichia coli strains with one amino-acid change in an essential protein, pooled on minimal glucose agar with carbenicillin or gentamicin at twice the control MIC (plus kanamycin and chloramphenicol for the plasmids), 48 h. Fold change of barcode share against drug-free plates; higher = less susceptible. Active = above 20 in both replicates (the paper's putatively resistant). '<' = one read or none on drug, '>' = one read or none on a drug-free plate. Shares are relative, so most strains fall below 1 when a few take over. Listed are strains with at least 15 reads on both drug-free plates, and hits; most hits rest on fewer reference reads. Replicate rank correlation about 0.5. Edits are read from barcodes.

B1: glyA I239W (protein)
chain: MLKREMNIADYDAELWQAMEQEKVRQEEHIELIASENYTSPRVMQAQGSQLTNKYAEGYPGKRYYGGCEYVDIVEQLAIDRAKELFGADYANVQPHSGSQANFAVYTALLEPGDTVLGMNLAHGGHLTHGSPVNFSGKLYNIVPYGIDATGHIDYADLEKQAKEHKPKMIIGGFSAYSGVVDWAKMREIADSIGAYLFVDMAHVAGLVAAGVYPNPVPHAHVVTTTTHKTLAGPRGGLWLAKGGSEELYKKLNSAVFPGGQGGPLMHVIAGKAVALKEAMEPEFKTYQQQVAKNAKAMVEVFLERGYKVVSGGTDNHLFLVDLVDKNLTGKEADAALGRANITVNKNSVPNDPKSPFVTSGIRVGTPAITRRGFKEAEAKELAGWMCDVLDSINDEAVIERIKGKVLDICARYPVYA
For B1, the “fold change of barcode share” value under setting [1] is > 86.8 [active].

B2: glyA V199P (protein)
chain: B1 chain with V199P, W239I
B2: under setting [1], the “fold change of barcode share” value is > 45.2 [active].

B3: glyA V199Q (protein)
chain: B1 chain with V199Q, W239I
For the protein B3, the “fold change of barcode share” value under setting [1] is 0.886 ± 0.54.

B4: glyA M201Q (protein)
chain: B1 chain with M201Q, W239I
As to B4, the “fold change of barcode share” value by setting is: under setting [1], 0.32 ± 0.027; under setting [2], 0.00319 ± 0.0024.

B5: glyA V199A (protein)
chain: B1 chain with V199A, W239I
For B5, the “fold change of barcode share” value runs as follows: under setting [1], 0.364 ± 0.12; under setting [2], under 0.00362.

B6: glyA M201D (protein)
chain: B1 chain with M201D, W239I
Consider B6, for which the “fold change of barcode share” value under setting [1] amounted to 0.821 ± 0.22 and the “fold change of barcode share” value under setting [2] was 0.0193 ± 0.006.

B7: glyA M201A (protein)
chain: B1 chain with M201A, W239I
For B7, the “fold change of barcode share” value by setting is: under setting [1], 0.326 ± 0.21; under setting [2], 0.0117 ± 0.011.

B8: glyQ V180A (protein)
chain: MQKFDTRTFQGLILTLQDYWARQGCTIVQPLDMEVGAGTSHPMTCLRELGPEPMAAAYVQPSRRPTDGRYGENPNRLQHYYQFQVVIKPSPDNIQELYLGSLKELGMDPTIHDIRFVEDNWENPTLGAWGLGWEVWLNGMEVTQFTYFQQVGGLECKPVTGEITYGLERLAMYIQGVDSAYDLVWSDGPLGKTTYGDVFHQNEVEQSTYNFEYADVDFLFTCFEQYEKEAQQLLALENPLPLPAYERILKAAHSFNLLDARKAISVTERQRYILRIRTLTKAVAEAYYASREALGFPMCNKDK
For the protein B8, the “fold change of barcode share” value runs as follows: under setting [1], 0.474 ± 0.13; under setting [2], under 0.014.

B9: glyQ V180P (protein)
chain: B8 chain with A180P
For B9, the “fold change of barcode share” value was 0.341 ± 0.018 under setting [1] and under 0.00367 under setting [2].

B10: glyQ V180W (protein)
chain: B8 chain with A180W
Turning to B10, the “fold change of barcode share” value is, setting by setting: under setting [1], 0.331 ± 0.092; under setting [2], 0.00771 ± 0.0063.

B11: glyQ V180Q (protein)
chain: B8 chain with A180Q
For B11, the “fold change of barcode share” value runs as follows: under setting [1], 0.3 ± 0.061; under setting [2], 0.0111 ± 0.0093.

B12: glyQ V180D (protein)
chain: B8 chain with A180D
On to B12, for which the “fold change of barcode share” value was 0.328 ± 0.06 under setting [1] and under 0.00694 under setting [2].

B13: glyQ L167A (protein)
chain: B8 chain with L167A, A180V
For B13, the “fold change of barcode share” value under setting [1] came to 2.37 ± 1.1.

(Values after the supplement of paper PMC11876631.)
